Results from patent US20240325539A1, “METHODS AND COMPOSITIONS FOR TREATING EPSTEIN BARR VIRUS-ASSOCIATED CANCER” (The Chancellor, Masters and Scholars of the University of …, priority 2020, published 2024).

System: PBMCs from an EBV+ healthy donor
Test: IFNγ ELISpot of ex vivo EBV-specific CD8+ T cell responses
Assay type: cell-based, human
Conditions: PBMCs with pool of EBV epitopes, 12 hours; range of doses
From the text: To be able to effectively “kick” EBV+GC cells into Zta+ abortive EBV reactivation lytic cycle presented us with an opportunity to “kill” the reactivated EBV+ cancer cells by harnessing the host's immune system, Zta specific T cells in particular as Zta is highly immunogenic (Pudney, V. A., et al. (2005). J Exp Med 201, 349-360) and many EBV seropositive individuals have Zta memory T cells. This study was set out to test whether HDACi have any direct impacts on CD8+ T cell responses to EBV viral antigens. Peripheral blood mononuclear cells (PBMCs) from an EBV+ healthy donor were stimulated with a pool of pre-determined EBV epitopes in the presence or absence of HDACi for 12 hours, and ex vivo EBV-specific CD8+ T cell responses were determined by an IFNγ ELISpot assay. […] In parallel, the optimal dose of each HDACi for AGS-EBV to minimize cell toxicity versus their ability to induce Zta expression was determined (FIG. 15A). To provide a proof of principle, whether reactivation of Zta by HDACi could sensitize tumor cells for recognition and killing by Zta-specific CD8+ T cells was subsequently tested. […] The TCR gene was retrovirally transduced into a TCR-negative T cell line (SKW3) or primary human CD8+ T cells for functional readouts, including cytokine production and killing of the tumor cells.

Structure (SMILES)	effect on T cell responses to EBV antigens
Nc1cc(F)ccc1NC(=O)c1ccc(CNC(=O)/C=C/c2cccnc2)cc1 [chidamide]	little, if any, inhibitory effect
Cc1[nH]c2ccccc2c1CCNCc1ccc(/C=C/C(=O)NO)cc1 [panobinostat]	substantially greater inhibition of the T cell responses than SAHA
